{"source": "the supplement of paper PMC3334620", "note": "Whole data set: some 33,000 sequences, median “E-score (-0.5 to 0.5)” near -0.035, cut for the highest 2% near 0.35. The list shows a part of the results."}
{"biological_target": "T1, Pdr3 (UniProt P33200)", "T1 sequence": "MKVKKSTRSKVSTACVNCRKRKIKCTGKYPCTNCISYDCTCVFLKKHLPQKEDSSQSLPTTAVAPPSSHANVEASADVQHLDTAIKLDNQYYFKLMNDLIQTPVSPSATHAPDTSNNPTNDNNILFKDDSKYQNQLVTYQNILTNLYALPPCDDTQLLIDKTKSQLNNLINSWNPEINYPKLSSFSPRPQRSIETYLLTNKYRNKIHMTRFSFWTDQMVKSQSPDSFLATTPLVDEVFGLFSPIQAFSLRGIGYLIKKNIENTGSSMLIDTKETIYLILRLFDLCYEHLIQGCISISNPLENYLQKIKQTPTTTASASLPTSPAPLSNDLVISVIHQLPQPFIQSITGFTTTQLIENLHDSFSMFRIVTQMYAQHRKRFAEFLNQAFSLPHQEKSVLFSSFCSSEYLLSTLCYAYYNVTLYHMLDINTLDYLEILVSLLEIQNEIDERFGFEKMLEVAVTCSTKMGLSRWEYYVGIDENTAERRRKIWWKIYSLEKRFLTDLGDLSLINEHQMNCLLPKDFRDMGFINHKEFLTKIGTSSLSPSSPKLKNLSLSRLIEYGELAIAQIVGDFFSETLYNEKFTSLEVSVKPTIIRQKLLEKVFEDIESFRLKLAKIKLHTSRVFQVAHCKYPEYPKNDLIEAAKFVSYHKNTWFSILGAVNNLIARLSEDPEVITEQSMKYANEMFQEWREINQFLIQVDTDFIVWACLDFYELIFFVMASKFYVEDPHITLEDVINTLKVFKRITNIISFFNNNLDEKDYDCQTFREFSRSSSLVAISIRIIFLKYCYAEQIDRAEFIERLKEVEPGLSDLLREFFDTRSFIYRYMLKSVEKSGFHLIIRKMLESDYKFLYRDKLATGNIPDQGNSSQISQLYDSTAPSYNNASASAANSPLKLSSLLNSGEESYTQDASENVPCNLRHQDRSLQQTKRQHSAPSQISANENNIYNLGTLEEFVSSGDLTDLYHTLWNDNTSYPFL", "assay": "PBM E-score (8-mer binding enrichment) (E-score (-0.5 to 0.5)); higher = stronger / more preferred TF binding; most listed sequences are background and not binding sites", "conditions": "protein concentration: 200 nM; construct: GST-full length", "experimental": "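Universal 'all 10-mer' protein binding microarrays (Agilent AMADID 015681) probed with GST-tagged S. cerevisiae TFs (full-length or DBD) made by in vitro transcription/translation (PURExpress), about 100-200 nM. Bound TF was detected with fluorescent anti-GST. Each ungapped 8-mer (which stands for itself and its reverse complement) is scored by the PBM enrichment score (E-score), a modified Wilcoxon-Mann-Whitney statistic from -0.5 to +0.5, computed with the Universal PBM Analysis Suite. Scale: above 0.35 generally sequence-specific binding.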"}
{"sequence": "GTAGCCAC", "PBM E-score": -0.345}
{"sequence": "GATGATGA", "PBM E-score": 0.101}
{"sequence": "AAGATTTG", "PBM E-score": 0.00494}
{"sequence": "CAACGTCC", "PBM E-score": -0.012}
{"sequence": "AAGATTGT", "PBM E-score": -0.134}
{"sequence": "ATTACTCC", "PBM E-score": 0.0865}
{"sequence": "AGGGGAAA", "PBM E-score": -0.0896}
{"sequence": "AACTGCGC", "PBM E-score": -0.146}
{"sequence": "CCGTGACG", "PBM E-score": 0.161}
{"sequence": "AATTGGCG", "PBM E-score": -0.0254}
{"sequence": "CCTCGTTA", "PBM E-score": -0.167}
{"sequence": "GCGGCTTA", "PBM E-score": -0.0127}
{"sequence": "GTCAAATA", "PBM E-score": -0.111}
{"sequence": "CTTATATA", "PBM E-score": 0.0525}
{"sequence": "CGCACTTC", "PBM E-score": -0.0221}
{"sequence": "AAATTACA", "PBM E-score": -0.0116}
{"sequence": "GAGTAGGA", "PBM E-score": -0.0876}
{"sequence": "CAACTAGA", "PBM E-score": -0.0997}
{"sequence": "AAGATATC", "PBM E-score": 0.0952}
{"sequence": "CTATTTGC", "PBM E-score": -0.094}
{"sequence": "CTCGCATC", "PBM E-score": -0.0271}
{"sequence": "AGCATGAA", "PBM E-score": -0.111}
{"sequence": "ATGACCTC", "PBM E-score": -0.21}
{"sequence": "AATGGTCT", "PBM E-score": -0.025}
{"sequence": "ACTCAGCG", "PBM E-score": 0.0198}
{"sequence": "GGGCAAGA", "PBM E-score": 0.141}
{"sequence": "CACGGCTC", "PBM E-score": 0.064}
{"sequence": "GCGTACAA", "PBM E-score": -0.158}
{"sequence": "ACTATGCG", "PBM E-score": 0.151}
{"sequence": "CTTCAGAC", "PBM E-score": -0.177}
{"sequence": "CTATGTTA", "PBM E-score": 0.148}
{"sequence": "CCGTTTAC", "PBM E-score": 0.185}
{"sequence": "CATGTACA", "PBM E-score": -0.248}
{"sequence": "GATTAGAA", "PBM E-score": -0.0925}
{"sequence": "CCGGGTCA", "PBM E-score": 0.349}
{"sequence": "CAGAAAGA", "PBM E-score": -0.14}
{"sequence": "CACATTTA", "PBM E-score": -0.347}
{"sequence": "TGAAATCA", "PBM E-score": 0.0512}
{"sequence": "GCATACTA", "PBM E-score": 0.0452}
{"sequence": "CCTACCAG", "PBM E-score": -0.23}
{"sequence": "CCTAGCTA", "PBM E-score": -0.218}
{"sequence": "GAACCCCA", "PBM E-score": 0.211}
{"sequence": "CGACTAAC", "PBM E-score": 0.0493}
{"sequence": "ATACAACC", "PBM E-score": 0.0891}
{"sequence": "ACCGATGA", "PBM E-score": -0.0178}
{"sequence": "CCCATTCA", "PBM E-score": 0.179}
{"sequence": "ACTTGAAA", "PBM E-score": -0.0654}
{"sequence": "AGGTTGTG", "PBM E-score": -0.253}
{"sequence": "ATGGCCGC", "PBM E-score": 0.0766}
{"sequence": "CACGTAGA", "PBM E-score": -0.234}
{"sequence": "CGTTTGGC", "PBM E-score": -0.0728}
{"sequence": "CGTTCATA", "PBM E-score": -0.175}
{"sequence": "CAACCTGA", "PBM E-score": -0.295}
{"sequence": "CACGATAA", "PBM E-score": 0.00396}
{"sequence": "CATGCCGC", "PBM E-score": 0.345}
{"sequence": "GGTCGGCA", "PBM E-score": -0.00943}
{"sequence": "ACATCTTC", "PBM E-score": 0.17}
{"sequence": "AAGAGGCT", "PBM E-score": -0.285}
{"sequence": "GATCGCGC", "PBM E-score": 0.117}
{"sequence": "TCCCTAGA", "PBM E-score": -0.166}
{"sequence": "ATTTATCG", "PBM E-score": 0.0282}
{"sequence": "CGAGTGCC", "PBM E-score": 0.0449}
{"sequence": "AACAAGGA", "PBM E-score": 0.0135}
{"sequence": "GGAGCTCC", "PBM E-score": 0.285}
{"sequence": "CCTGGGCG", "PBM E-score": 0.0119}
{"sequence": "ACCGTTAA", "PBM E-score": 0.0941}
{"sequence": "GAGTTTGA", "PBM E-score": 0.0662}
{"sequence": "ACGGAAAC", "PBM E-score": 0.452}
{"sequence": "ACCTGGCC", "PBM E-score": 0.162}
{"sequence": "CATATACG", "PBM E-score": -0.0904}
{"sequence": "AATTAGAC", "PBM E-score": -0.243}
{"sequence": "ATGACTAG", "PBM E-score": -0.276}
{"sequence": "AGGAGCGA", "PBM E-score": -0.199}
{"sequence": "ATTGGTCA", "PBM E-score": -0.163}
{"sequence": "ATCCGGCA", "PBM E-score": 0.255}
{"sequence": "CGACGGGA", "PBM E-score": 0.311}
{"sequence": "AGTAGTAA", "PBM E-score": -0.0722}
{"sequence": "AGATATCG", "PBM E-score": -0.0672}
{"sequence": "AGGGACCG", "PBM E-score": -0.128}
{"sequence": "CACTGTGA", "PBM E-score": -0.132}
{"sequence": "CTCTTGAA", "PBM E-score": -0.192}
{"sequence": "TAGTGGCA", "PBM E-score": -0.0992}
{"sequence": "AAAGGCAG", "PBM E-score": -0.108}
{"sequence": "CAACGATC", "PBM E-score": -0.0405}
{"sequence": "TCAACGGA", "PBM E-score": 0.359}
{"sequence": "ATCATCGA", "PBM E-score": 0.0114}
